In all, about 33,000 sequences were measured (“E-score (-0.5 to 0.5)”: median about -0.011, highest 2% from about 0.28 on). This is one part of the list.
molecular target: T1, Gcr1 (UniProt P07261); experiment: PBM E-score (8-mer binding enrichment) (E-score (-0.5 to 0.5)); higher = stronger / more preferred TF binding; most listed sequences are background and not binding sites; settings: protein concentration: 100 nM; construct: GST-full length
T1 sequence: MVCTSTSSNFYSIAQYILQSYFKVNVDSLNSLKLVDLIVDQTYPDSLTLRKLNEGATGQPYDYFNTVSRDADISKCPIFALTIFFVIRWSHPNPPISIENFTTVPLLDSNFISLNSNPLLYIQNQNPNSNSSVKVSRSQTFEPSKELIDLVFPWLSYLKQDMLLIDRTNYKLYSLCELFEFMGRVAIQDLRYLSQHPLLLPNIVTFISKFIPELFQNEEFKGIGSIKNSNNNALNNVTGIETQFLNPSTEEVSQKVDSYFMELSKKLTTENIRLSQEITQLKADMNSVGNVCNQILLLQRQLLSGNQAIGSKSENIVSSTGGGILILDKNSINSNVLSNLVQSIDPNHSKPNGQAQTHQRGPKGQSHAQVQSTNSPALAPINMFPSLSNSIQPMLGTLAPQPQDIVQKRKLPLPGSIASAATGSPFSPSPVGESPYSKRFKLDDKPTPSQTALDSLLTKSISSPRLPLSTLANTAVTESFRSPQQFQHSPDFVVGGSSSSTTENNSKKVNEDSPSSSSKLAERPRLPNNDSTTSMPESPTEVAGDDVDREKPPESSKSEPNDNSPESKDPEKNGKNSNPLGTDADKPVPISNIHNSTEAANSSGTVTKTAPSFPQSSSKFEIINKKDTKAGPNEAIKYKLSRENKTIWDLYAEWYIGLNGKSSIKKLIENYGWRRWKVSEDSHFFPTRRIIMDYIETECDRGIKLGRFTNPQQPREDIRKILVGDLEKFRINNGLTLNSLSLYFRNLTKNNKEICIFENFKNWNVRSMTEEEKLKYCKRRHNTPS
Outline: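 Yeast transcription factors, full-length or as DNA-binding domains, were expressed with a GST tag using PURExpress in vitro transcription/translation. At about 100-200 nM they were applied to universal all-10-mer Agilent arrays, double-stranded by primer extension on fresh or once-stripped slides. Fluorescent anti-GST detected bound protein, and masliner normalised the scans. E-scores for ungapped eight-base words, pooled with reverse complements, came from the Universal PBM Analysis Suite.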

| Sequence | PBM E-score |
| --- | --- |
| AATTGTAG | 0.143 |
| CTTTATGA | -0.121 |
| GAGAGTCC | 0.0202 |
| ACCTCGAT | 0.0787 |
| AAGACAGG | 0.154 |
| CATTTACG | 0.0351 |
| CCGCGCTC | -0.0657 |
| AACCTGCT | -0.0668 |
| ATCGTTAG | -0.0624 |
| AATCGAGA | 0.0211 |
| ATGCGAAC | 0.0123 |
| GGTCTTTA | -0.0204 |
| ATAATCTC | -0.0588 |
| TGAAGCAA | -0.125 |
| CCTGACTA | 1e-05 |
| AGAATTAG | 0.051 |
| GTTTGTCA | -0.161 |
| ATGCCTAC | -0.0791 |
| AGGGGCAG | 0.00723 |
| ACCGATAC | -0.0146 |
| ACAAGACA | -0.108 |
| GGTAAGTA | 0.0636 |
| GCCGTAGA | -0.0195 |
| ATTGGTAG | -0.0441 |
| ATCCCGAC | 0.0526 |

| Sequence | PBM E-score |
| --- | --- |
| AAAAGCAA | 0.0331 |
| ATGCGTTA | -0.0638 |
| GCTTCTTA | 0.338 |
| GAATCGCA | -0.111 |
| CGTAGCGC | -0.135 |
| AATAGCAA | 0.0972 |
| CGTAGTAG | -0.0254 |
| ATACGGAG | 0.0396 |
| ATTTCGAG | 0.0797 |
| GACCTCGC | -0.215 |
| AATGCACG | -0.246 |
| AGTTTAGC | -0.0273 |
| CAGTTTAC | -0.0219 |
| CGTTTAAA | 0.132 |
| CCGATGGA | -0.189 |
| GAAGACAC | -0.104 |
| AGCCACAA | 0.15 |
| CAAAATCC | 0.0235 |
| ATAACCAA | -0.00969 |
| AAGTCACG | -0.0643 |
| ATAATCCC | -0.00771 |
| AACCCGTG | -0.144 |
| AACTTGCC | -0.0579 |
| CGAAGTTC | -0.0413 |
| GGAATTCC | 0.426 |

| Sequence | PBM E-score |
| --- | --- |
| GAACCCGC | 0.106 |
| AACGAGGA | -0.0643 |
| CGGTCGGC | -0.175 |
| AGAGTTAA | -0.109 |
| GCAACCGA | 0.117 |
| GGATGTGA | 0.0908 |
| TCTAAGCA | -0.0506 |
| AATAGTGG | 0.425 |
| AAAAATCT | 0.0339 |
| TCTACGCA | -0.106 |
| AGAGTCGG | 0.0307 |
| AGAAAAGA | 0.0232 |
| CACCAATG | -0.0519 |
| GAACTCGA | 0.0624 |
| CGCCAAGA | 0.017 |
| ATACATGA | 0.189 |
| CAATTCTA | 0.0755 |
| ACCTGCAA | -0.0561 |
| AGCTGTAC | -0.0968 |
| ATTCATGG | -0.00395 |
| GCCGCTAA | 0.188 |
| CATTGAAA | 0.19 |
| CCCATGGA | 0.124 |
| CCGCCTCC | 0.0177 |
| AGCACCAG | 0.156 |

| Sequence | PBM E-score |
| --- | --- |
| TAACGAGA | -0.036 |
| GCACCACA | 0.199 |
| TTATTGAA | 0.031 |
| CGGTGGCA | -0.174 |
| AAAACCAT | 0.0712 |
| AGATGTGC | -0.136 |
| CGACCTTA | -0.0457 |
| AAGTTCTA | 0.02 |
| AATAGGTA | 0.189 |
| ATATCTTA | -0.0306 |
| ACACTGGG | -0.205 |
| CAGCTAAC | -0.212 |
| CCGATGTC | -0.0839 |
| TCATCTCA | -0.0801 |
| AACTTACT | -0.278 |
| GGAATGCC | 0.0635 |
| ACGCCAGG | -0.0367 |
| GAGTCACC | -0.0707 |
| CGCTTGTA | -9e-05 |
| CTATTGTA | 0.135 |
| AAAGGGAG | -0.088 |
| ACCTAGGA | -0.101 |
| GCCGGCAA | -0.0541 |
| ACGTCCAG | 0.0487 |
| AGAAGACT | 0.00129 |

| Sequence | PBM E-score |
| --- | --- |
| ATAATTTA | 0.184 |
| ATTACGGC | -0.0705 |
| GTTGGAAA | 0.147 |
| GCTCATTA | 0.034 |
| CGTACCCA | 0.128 |
| AGAATCTC | -0.124 |
| TACGTTAA | -0.186 |
| AATACTCT | -0.107 |
| ATCCCTCA | -0.0715 |
| CTAGCCAA | -0.00946 |
| AGTGCGAA | -0.0853 |
| CATTTGCG | -0.0151 |
| AGGCATAT | 0.00107 |
| ATACCTTG | -0.108 |
| AAACAGAG | -0.244 |
| CCGGCCCG | -0.26 |
| GGTATACA | -0.0213 |
| ATAGGAAC | 0.319 |
| ACGATTGA | -0.0106 |
| CCACCCGA | -0.0311 |
| CGACCGTA | -0.309 |
| CAGAGTTA | -0.129 |
| GTGCTATA | -0.0343 |
| CTTCAAGC | -0.00738 |
| GAGCCCTC | -0.25 |

| Sequence | PBM E-score |
| --- | --- |
| ACTGCAGG | -0.0183 |
| GGGTTCCA | 0.419 |
| AACGTTCT | 0.0468 |
| ATGCCATA | -0.161 |
| AGAGGGCT | -0.248 |
| CCGTCACC | -0.0694 |
| ACATCAGG | 0.0569 |
| CGGATGTC | 0.0736 |
| ACGGAAGT | -0.0172 |
| ACCAGCAT | 0.0308 |
| AGAATAGA | 0.129 |
| AGGATACT | -0.0705 |
| ACGCATTA | 0.126 |
| ATTTAGGG | 0.196 |
| TAGATCGA | -0.12 |
| GGGAGAAC | -0.213 |
| GATTGCTA | -0.0182 |
| AGCCCTTG | -0.268 |
| AAGGTAAC | 0.106 |
| ACTTGCAA | -0.0778 |
| ATGGGCAA | -0.0035 |
| TGGGCACA | -0.0019 |
| GTGTGAAC | -0.0443 |
| AACCCTGT | -0.0296 |
| ATTGTTTG | -0.00621 |

| Sequence | PBM E-score |
| --- | --- |
| TCAGTTCA | -0.0489 |
| AATGGTCA | 0.0991 |
| GCTGAATA | 0.0253 |
| CAATTCTG | 0.135 |
| TGCTAAAA | 0.144 |
| CGCGACCC | -0.104 |
| TCGACAGA | -0.135 |
| GATCGGCA | -0.162 |
| CACTATCC | 0.00039 |
| CCGATGGC | -0.0124 |
| AAAAAAGC | -0.0745 |
| CCGAAGGC | -0.158 |
| AGATGGCC | -0.357 |
| GATAGCGC | 0.0196 |
| ACTACTCG | 0.0127 |
| CGGCGTAC | -0.181 |
| ATAACGCG | -0.00839 |
| AACGCAAA | -0.0691 |
| GCATTAAA | 0.126 |
| AGAAGTGA | -0.153 |
| ATCTTAGC | -0.00256 |
| AACACCAT | -0.058 |
